According to US20150104450A1:
Substitutions are numbered along the chain they refer to.

B1: CTLA-4 Variant 0943 in Fc fusion format (Fc fusion)
chain: MHVAQPAVVLASSRGIASFVCEYAPPGKATEVRVTVLRQADSQVTEVCAATYMMGNESTFLDDSICTGTSSGNQVNLTIRGLRALDTGLYICQVELMYPPPYYLGIGNGTQIYVIDPEPCPDSDV[letters of human IgG1 Fc omitted]
B2: CTLA-4 Variant 1319 in Fc fusion format (Fc fusion)
chain: MHVAQPAVVLASSRGIASFVCEYAPPGKATEVRVTVLRQADSQVTEVCAATYMMGSELSTQDYPNCTGTASGNQVNLTIQGLRAMDTGLYICQVELMYPPPYYLGIGNGTQIYVIDPEPCPDSDV[letters of human IgG1 Fc omitted]
B3: CTLA-4 Variant 1249 in Fc fusion format (Fc fusion)
chain: B1 chain with I16R, P25N, S58P, S70M, R80Q, L85V, Q93T, N108D
B4: CTLA-4 Variant 0722 in Fc fusion format (Fc fusion)
chain: B1 chain with I16V, S42G, R80Q, L85M, Q93E, L104R
B5: CTLA-4 Variant 0645 in Fc fusion format (Fc fusion)
chain: B1 chain with I16T, S58L, T59A, L61P, I65V, S70T, R80Q, L85M, Q93E
B6: CTLA-4 Variant 0636 in Fc fusion format (Fc fusion)
chain: B1 chain with D41G, M54K, I65V, S70T, R80Q, L85M, I115V
B7: CTLA-4 Variant 0745 in Fc fusion format (Fc fusion)
chain: B1 chain with I16T, P25S, N56G, R80Q, L85M, Q93E, L104R, I106V
B8: CTLA-4 Variant 0673 in Fc fusion format (Fc fusion)
chain: MHVAQPAVVLASSRGIASFVCEYASPGKATEVRVTVLRQADSQVTEVCAAYMMGNELTFLGDSTCTGTSSGNQVNLTIQGLRAMDSGLYICKVELMYPPPYYLGIGNGTQIYVIDPEPCPDSDV[letters of human IgG1 Fc omitted]
B9: CTLA-4 Variant 0788 in Fc fusion format (Fc fusion)
chain: B1 chain with P25S, V32I, L85V, Q93M, L104Q, N108S
B10: CTLA-4 Variant 0701 in Fc fusion format (Fc fusion)
chain: B8 chain with V44E, M53V, T64I, S86T, L103E, I114F
B11: CTLA-4 Variant 1322 in Fc fusion format (Fc fusion)
chain: B2 chain with P25N, G27S, M54K, A70S
B12: CTLA-4 Variant 1321 in Fc fusion format (Fc fusion)
chain: B1 chain with I16S, P25N, M54K, S58G, S70A, L85S
B13: CTLA-4 Variant 1299 in Fc fusion format (Fc fusion)
chain: B1 chain with I16R, A24T, P25N, G27S, S58A, S70A, R80Q, L85Q
B14: CTLA-4 Variant 1315 in Fc fusion format (Fc fusion)
chain: B1 chain with I16S, P25N, S58G, S70A, L85S
B15: CTLA-4 Variant 1227 in Fc fusion format (Fc fusion)
chain: B1 chain with I16S, P25N, G27S, S58A, S70A, R80Q, L85Q, Q93H
B16: CTLA-4 Variant 1115 in Fc fusion format (Fc fusion)
chain: B1 chain with I16V, P25N, S58G, S70A, R80Q, L85Q
B17: CTLA-4 Variant 1114 in Fc fusion format (Fc fusion)
chain: B1 chain with I16R, P25N, S58G, S70T, R80Q, L85K

How the values were obtained:
[1] = target: CD80 (B7-1) expressed on Raji cells (UniProt P33681); experiment: cell-based or functional assay
[2] = target: CD86 (B7-2) expressed on Raji cells (UniProt P42081); experiment: cell-based or functional assay
[3] = target: cynomolgus monkey CD86 extracellular domain with FLAG 10xhis tag (cynomolgus monkey); experiment: SPR (Biacore 2000), ratio of KD
[4] = target: human CD86 extracellular domain with FLAG 10xhis tag (human); experiment: SPR (Biacore 2000), ratio of KD
[5] = target: cynomolgus monkey CD86 extracellular domain with FLAG 10xhis tag (cynomolgus monkey); experiment: SPR (Biacore 2000), CTLA-4-Fc amine-coupled to CM5, ligand ECD as analyte, monovalent affinity
[6] = target: human CD86 extracellular domain with FLAG 10xhis tag (human); experiment: as above

Sequence of cynomolgus monkey CD86 extracellular domain with FLAG 10xhis tag (cynomolgus monkey) (chain, as listed by the source limits assumed, form in doubt): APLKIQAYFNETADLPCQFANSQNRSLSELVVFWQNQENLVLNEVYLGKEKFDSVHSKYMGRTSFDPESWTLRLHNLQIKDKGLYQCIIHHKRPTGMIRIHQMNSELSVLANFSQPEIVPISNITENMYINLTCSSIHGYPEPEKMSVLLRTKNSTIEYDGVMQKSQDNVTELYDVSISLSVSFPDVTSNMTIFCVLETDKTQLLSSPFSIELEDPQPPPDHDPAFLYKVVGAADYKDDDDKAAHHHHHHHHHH
Sequence of human CD86 extracellular domain with FLAG 10xhis tag (human) (chain, as listed by the source limits assumed, form in doubt): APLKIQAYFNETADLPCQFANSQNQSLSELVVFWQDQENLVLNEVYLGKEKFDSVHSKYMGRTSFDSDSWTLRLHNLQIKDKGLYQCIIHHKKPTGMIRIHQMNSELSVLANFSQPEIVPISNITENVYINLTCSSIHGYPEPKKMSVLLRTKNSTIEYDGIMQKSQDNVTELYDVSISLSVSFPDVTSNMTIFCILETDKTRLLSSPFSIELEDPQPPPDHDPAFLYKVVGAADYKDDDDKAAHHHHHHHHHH
Sequence of UniProt P42081 (P42081 24-329): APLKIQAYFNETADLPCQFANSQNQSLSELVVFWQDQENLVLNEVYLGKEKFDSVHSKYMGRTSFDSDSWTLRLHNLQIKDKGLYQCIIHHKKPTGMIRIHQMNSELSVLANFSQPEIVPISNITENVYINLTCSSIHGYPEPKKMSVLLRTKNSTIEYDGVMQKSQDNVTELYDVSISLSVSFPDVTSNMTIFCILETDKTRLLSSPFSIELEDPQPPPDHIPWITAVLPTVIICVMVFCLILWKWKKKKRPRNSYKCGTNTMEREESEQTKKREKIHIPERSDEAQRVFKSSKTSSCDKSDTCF
Sequence of UniProt P33681 (P33681 35-288): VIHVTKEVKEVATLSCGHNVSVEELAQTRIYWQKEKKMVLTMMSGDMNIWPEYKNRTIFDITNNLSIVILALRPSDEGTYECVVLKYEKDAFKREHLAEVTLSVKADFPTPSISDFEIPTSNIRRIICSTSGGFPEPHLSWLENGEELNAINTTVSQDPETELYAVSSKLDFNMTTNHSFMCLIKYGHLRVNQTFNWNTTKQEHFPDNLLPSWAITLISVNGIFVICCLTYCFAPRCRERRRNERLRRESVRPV

Binder	Fold Improvement over Wild Type (SEQ ID NO: 35), Raji/Jurkat IC50 [1] [fold]	Raji/Jurkat Dual Cell Assay IC50 (IL-2 release) [1] [nM]	Fold Improvement over Wild Type (SEQ ID NO: 35), Raji/Jurkat IC50 [2] [fold]	Raji/Jurkat Dual Cell Assay IC50 (IL-2 release) [2] [nM]	fold-improvement in affinity over wild type CTLA-4 in Fc fusion format [3] [fold]	fold-improvement in affinity over wild type CTLA-4 in Fc fusion format [4] [fold]	Kd [5] [nM]	Kd [6] [nM]
B1	56	0.54	56	0.54	–	–	–	–
B2	38	0.78	38	0.78	–	–	–	–
B3	43	0.69	43	0.69	–	–	–	–
B4	28	1.07	28	1.07	–	–	–	–
B5	24	1.24	24	1.24	–	–	–	–
B6	24	1.26	24	1.26	–	–	–	–
B7	22	1.36	22	1.36	–	–	–	–
B8	22	1.38	22	1.38	–	–	–	–
B9	19	1.6	19	1.6	–	–	–	–
B10	19	1.61	19	1.61	–	–	–	–
B11	–	–	–	–	20	12	330	526
B12	–	–	–	–	7	6	960	1080
B13	–	–	–	–	6	5	1020	1390
B14	–	–	–	–	9	6	750	1130
B15	–	–	–	–	6	6	1020	1150
B16	–	–	–	–	6	4	1070	1540
B17	–	–	–	–	5	5	1280	1340
